The record followed here is the BET-seq Pho4 binding data (Le et al. 2018).

This is one part of the list. These are noisy estimates, calculated here from bound and input reads.

The target of the experiment is T1, Pho4 (S. cerevisiae) (UniProt P07270).
T1 sequence: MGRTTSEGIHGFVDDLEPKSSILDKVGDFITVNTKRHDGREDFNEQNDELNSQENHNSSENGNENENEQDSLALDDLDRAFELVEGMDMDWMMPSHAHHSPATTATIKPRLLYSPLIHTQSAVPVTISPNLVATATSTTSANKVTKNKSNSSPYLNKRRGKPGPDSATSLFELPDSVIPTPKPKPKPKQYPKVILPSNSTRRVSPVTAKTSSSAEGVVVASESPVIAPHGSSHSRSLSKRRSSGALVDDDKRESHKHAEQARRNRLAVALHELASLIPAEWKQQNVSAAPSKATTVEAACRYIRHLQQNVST
Nature of the experiment: relative binding free energy (BET-seq); higher = weaker binding. The conditions noted are these: reference: library average.
TGTGACACGTGAGTAG: the “relative binding free energy” value stood at 0.03 kcal/mol.

Take CGTAACACGTGTGGGA: the “relative binding free energy” value turned out to be 0.08 kcal/mol.

Consider GCGGGCACGTGGAATT, for which the “relative binding free energy” value was determined as 0.16 kcal/mol.

For GCGTTCACGTGGAGTG, the “relative binding free energy” value was 0.43 kcal/mol.

As to TGCGACACGTGCTGGG, the “relative binding free energy” value is -0.06 kcal/mol.

On to CATTACACGTGGTAGT, for which the “relative binding free energy” value was 0.03 kcal/mol.

On to GGAAACACGTGTGAGG, for which the “relative binding free energy” value stood at 0.04 kcal/mol.

Take TATATCACGTGGGAGG: the “relative binding free energy” value was found to be 0.02 kcal/mol.

As to TAATACACGTGAATGG, the “relative binding free energy” value came out at 0.32 kcal/mol.

In the case of AGGAGCACGTGGTACG, the “relative binding free energy” value is -0.14 kcal/mol.

Take TGTATCACGTGGGTCG: the “relative binding free energy” value turned out to be 0.01 kcal/mol.

In the case of GTAAGCACGTGTTGTA, the “relative binding free energy” value is -0.04 kcal/mol.

GGCATCACGTGGCGGG: the “relative binding free energy” value was found to be 0.16 kcal/mol.

Turning to ATGGGCACGTGGTTTC, the “relative binding free energy” value was -0.19 kcal/mol.

On to TGCGACACGTGAAAGG, for which the “relative binding free energy” value was found to be 0.39 kcal/mol.

As for GGCGTCACGTGTAGGG, the “relative binding free energy” value was -0.04 kcal/mol.

Take ACTTCCACGTGTTGGG: the “relative binding free energy” value came out at 0.1 kcal/mol.

In the case of GCGTTCACGTGTTAAG, the “relative binding free energy” value is 0.34 kcal/mol.

For the sequence CGTGGCACGTGCGTGC, the “relative binding free energy” value is -0.24 kcal/mol.

With TGGACCACGTGGGTGA, the “relative binding free energy” value was -0.13 kcal/mol.

With AGGCGCACGTGTTTGG, the “relative binding free energy” value is -0.01 kcal/mol.

In the case of CGATCCACGTGGTGTT, the “relative binding free energy” value was 0.11 kcal/mol.

On to GAGGACACGTGTATGT, for which the “relative binding free energy” value is 0.02 kcal/mol.

For the sequence GTTGTCACGTGGCGCA, the “relative binding free energy” value was 0.1 kcal/mol.

As to TCTTGCACGTGATTGA, the “relative binding free energy” value is 0.17 kcal/mol.

Consider ATTAACACGTGTCTGT, for which the “relative binding free energy” value was -0.05 kcal/mol.

On to TTCAGCACGTGGATTG, for which the “relative binding free energy” value was -0.07 kcal/mol.

As for GGACGCACGTGTGGAG, the “relative binding free energy” value amounted to 0.07 kcal/mol.

As for CGGGACACGTGCGGTT, the “relative binding free energy” value stood at 0.09 kcal/mol.

ATGTGCACGTGCTGCT: the “relative binding free energy” value was -0.05 kcal/mol.

In the case of GTACGCACGTGAGGGA, the “relative binding free energy” value worked out at 0.13 kcal/mol.

Regarding GTTAGCACGTGAAGAG, the “relative binding free energy” value came to 0.35 kcal/mol.

Turning to CGGGACACGTGGGCCG, the “relative binding free energy” value was -0.12 kcal/mol.

Consider TAGGTCACGTGCGGCT, for which the “relative binding free energy” value was 0.08 kcal/mol.

For ATAATCACGTGTGTGT, the “relative binding free energy” value came to 0.16 kcal/mol.

On to GATGGCACGTGCTGGA, for which the “relative binding free energy” value was -0.07 kcal/mol.

For the sequence TTGGGCACGTGTTAGA, the “relative binding free energy” value was -0.11 kcal/mol.

As for GGTTTCACGTGGTCTG, the “relative binding free energy” value stood at 0.31 kcal/mol.

ATTGCCACGTGGGCTG: the “relative binding free energy” value was -0.17 kcal/mol.

In the case of GAAGGCACGTGATGTT, the “relative binding free energy” value was determined as 0.09 kcal/mol.

As to AATAGCACGTGGTCTG, the “relative binding free energy” value was -0.09 kcal/mol.

In the case of AGGTACACGTGATTGA, the “relative binding free energy” value was determined as 0.15 kcal/mol.

Take AGATTCACGTGTAGTC: the “relative binding free energy” value was 0.39 kcal/mol.

TGATCCACGTGTGGGG: the “relative binding free energy” value was determined as 0.17 kcal/mol.

For ATGTACACGTGTGAGA, the “relative binding free energy” value was found to be 0.17 kcal/mol.

Take GGCGTCACGTGCATTG: the “relative binding free energy” value amounted to 0.11 kcal/mol.

For the sequence TTAGGCACGTGATCAT, the “relative binding free energy” value was -0.13 kcal/mol.

For CTGTGCACGTGTTATA, the “relative binding free energy” value was 0.03 kcal/mol.

With TTAGACACGTGCGTTT, the “relative binding free energy” value is -0.07 kcal/mol.

Turning to GTTTGCACGTGGCAGC, the “relative binding free energy” value was 0.04 kcal/mol.

In the case of GGATTCACGTGTGTTT, the “relative binding free energy” value was found to be 0.14 kcal/mol.

As to ATCAGCACGTGGGTAT, the “relative binding free energy” value is -0.22 kcal/mol.

With GATTGCACGTGAGTTG, the “relative binding free energy” value was found to be 0.32 kcal/mol.

In the case of TTAGGCACGTGTCAGG, the “relative binding free energy” value is -0.07 kcal/mol.

With TGTGTCACGTGAAATC, the “relative binding free energy” value stood at 0.34 kcal/mol.

TTATGCACGTGGAAAT: the “relative binding free energy” value came to 0.18 kcal/mol.

On to TGCTGCACGTGTGGAG, for which the “relative binding free energy” value is 0.07 kcal/mol.

With AATATCACGTGAGTTT, the “relative binding free energy” value turned out to be 0.24 kcal/mol.

Regarding TGTATCACGTGCTGTT, the “relative binding free energy” value stood at 0.01 kcal/mol.

With TTCCACACGTGTTGGT, the “relative binding free energy” value stood at 0.07 kcal/mol.

For the sequence TCAGGCACGTGGTATT, the “relative binding free energy” value was -0.11 kcal/mol.

Regarding GATAACACGTGATGGT, the “relative binding free energy” value came to 0.14 kcal/mol.

On to AGTTTCACGTGGTAAC, for which the “relative binding free energy” value came out at 0.38 kcal/mol.

As to TTAGCCACGTGATGGT, the “relative binding free energy” value stood at 0.02 kcal/mol.

Take GCGTTCACGTGGGATA: the “relative binding free energy” value turned out to be 0.21 kcal/mol.

With ATACTCACGTGTATGG, the “relative binding free energy” value was 0.04 kcal/mol.

For the sequence TTTAGCACGTGGCTGC, the “relative binding free energy” value was -0.09 kcal/mol.

Take GGGTCCACGTGATATG: the “relative binding free energy” value stood at 0.1 kcal/mol.

Regarding AGGTACACGTGGAAAG, the “relative binding free energy” value is 0.29 kcal/mol.

GTCGTCACGTGTTGGC: the “relative binding free energy” value is 0.07 kcal/mol.

In the case of TTTATCACGTGGTCGT, the “relative binding free energy” value is 0.04 kcal/mol.

For the sequence GGTTGCACGTGTGCTT, the “relative binding free energy” value came to 0.04 kcal/mol.

For the sequence TAGGGCACGTGGCAGG, the “relative binding free energy” value is -0.19 kcal/mol.

Regarding TTGTGCACGTGGATCG, the “relative binding free energy” value is 0.04 kcal/mol.

Turning to GAGCGCACGTGGTGAT, the “relative binding free energy” value is -0.09 kcal/mol.

Consider ATGAGCACGTGGTTAA, for which the “relative binding free energy” value is -0.1 kcal/mol.

For the sequence AAGGACACGTGGGTAT, the “relative binding free energy” value is -0.08 kcal/mol.

As for GTGGGCACGTGGGTAC, the “relative binding free energy” value is -0.17 kcal/mol.

In the case of GGTGTCACGTGGACGG, the “relative binding free energy” value came out at 0.2 kcal/mol.

On to TTGATCACGTGAGTTC, for which the “relative binding free energy” value is 0.41 kcal/mol.

Take CTGTGCACGTGTTGTA: the “relative binding free energy” value was -0.11 kcal/mol.

As to GAGTTCACGTGGGCGG, the “relative binding free energy” value was 0.22 kcal/mol.

As for CTCGTCACGTGTTATG, the “relative binding free energy” value came out at 0.19 kcal/mol.

With CTTTGCACGTGGAGGT, the “relative binding free energy” value amounted to 0.06 kcal/mol.

As to CGTTACACGTGAGTGA, the “relative binding free energy” value was 0.21 kcal/mol.

For the sequence ACAGGCACGTGTGGGG, the “relative binding free energy” value was -0.11 kcal/mol.

Take TATAGCACGTGCAGTG: the “relative binding free energy” value was -0.15 kcal/mol.

In the case of GGGGGCACGTGGCGAT, the “relative binding free energy” value is -0.02 kcal/mol.

Turning to GATTTCACGTGTAGTA, the “relative binding free energy” value came out at 0.37 kcal/mol.

With GTTGGCACGTGTAAGA, the “relative binding free energy” value is -0.03 kcal/mol.

Turning to CTGGACACGTGGGGTA, the “relative binding free energy” value is -0.1 kcal/mol.

On to CGGGTCACGTGTGGTA, for which the “relative binding free energy” value amounted to 0.16 kcal/mol.

Take TGGTACACGTGCGGTG: the “relative binding free energy” value stood at 0.1 kcal/mol.

In the case of GATTTCACGTGTCTTG, the “relative binding free energy” value was 0.45 kcal/mol.

TGTGTCACGTGGGCAT: the “relative binding free energy” value was -0.14 kcal/mol.

Regarding TACTGCACGTGTGTTG, the “relative binding free energy” value came out at 0 kcal/mol.

For the sequence GTATTCACGTGCTAGG, the “relative binding free energy” value stood at 0.16 kcal/mol.

Consider AGATGCACGTGGTGGG, for which the “relative binding free energy” value is -0.09 kcal/mol.

With TAGTTCACGTGCGGTA, the “relative binding free energy” value came out at 0.22 kcal/mol.

On to CTTGACACGTGCTGTG, for which the “relative binding free energy” value was -0.11 kcal/mol.

Consider GCACGCACGTGGGGTG, for which the “relative binding free energy” value is -0.43 kcal/mol.

Turning to AACGGCACGTGGGAGA, the “relative binding free energy” value was -0.17 kcal/mol.

TTCGTCACGTGCGTGT: the “relative binding free energy” value was -0.09 kcal/mol.

Regarding TTATCCACGTGGGTGC, the “relative binding free energy” value is -0.06 kcal/mol.

With TGTTTCACGTGGGACA, the “relative binding free energy” value came out at 0.2 kcal/mol.

Consider GTACACACGTGGGTTA, for which the “relative binding free energy” value was -0.01 kcal/mol.

GACGTCACGTGGGGGA: the “relative binding free energy” value is 0.05 kcal/mol.

CGAGTCACGTGGTGCA: the “relative binding free energy” value turned out to be 0.04 kcal/mol.

Consider GTGGGCACGTGGACGG, for which the “relative binding free energy” value is -0.07 kcal/mol.

With TTATTCACGTGTACAT, the “relative binding free energy” value was 0.17 kcal/mol.

As to TAGATCACGTGTATGT, the “relative binding free energy” value worked out at 0.15 kcal/mol.

Consider TAAGGCACGTGGCCGG, for which the “relative binding free energy” value is -0.3 kcal/mol.

Take TTAGGCACGTGAGTGC: the “relative binding free energy” value worked out at 0.02 kcal/mol.

On to TTAGACACGTGGGCTT, for which the “relative binding free energy” value was -0.19 kcal/mol.

Consider TGGGTCACGTGGAGGA, for which the “relative binding free energy” value is 0.12 kcal/mol.
